The source of these data is the supplement of paper PMC8728848.

This is one part of the list.

What all share (experiment): glycan array binding signal (z-score within array); higher = stronger binding
Holding throughout (conditions): glycan notation: IUPAC condensed, linker removed

In assay [1] the target is GlcNAc(b1-2)[GlcNAc(b1-4)]Man(a1-3)[GlcNAc(b1-4)][GlcNAc(b1-2)[GlcNAc(b1-6)]Man(a1-6)]Man(b1-4)GlcNAc(b1-4)GlcNAc. An outline of the steps: (§1)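 Arrays were curated from the Consortium for Functional Glycomics database, 3228 in total, and kept only where the protein sequence was available. Binding is expressed as a within-array Z-score. This score was averaged across arrays of the same protein sequence at different concentrations or buffers and across linkers, and negative values can be read as non-binding.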

Assay [2] addresses GlcNAc(b1-2)[GlcNAc(b1-4)]Man(a1-3)[GlcNAc(b1-4)][GlcNAc(b1-2)[GlcNAc(b1-6)]Man(a1-6)]Man(b1-4)GlcNAc(b1-4)[Fuc(a1-6)]GlcNAc. The method, boiled down:
as §1

Assay [3] has as its target GlcNAc(b1-2)[GlcNAc(b1-6)]Man(a1-6)[GlcNAc(b1-2)Man(a1-3)]Man(b1-4)GlcNAc(b1-4)GlcNAc. The method, boiled down: as §1
Assay [4] has as its target GlcNAc(b1-2)[GlcNAc(b1-6)]Man(a1-6)[GlcNAc(b1-2)Man(a1-3)]Man(b1-4)GlcNAc(b1-4)[Fuc(a1-6)]GlcNAc. An outline of the steps: as §1
Assay [5] concerns the target GlcNAc(b1-2)[GlcNAc(b1-6)]Man(a1-6)[GlcNAc(b1-4)][GlcNAc(b1-2)Man(a1-3)]Man(b1-4)GlcNAc(b1-4)GlcNAc. An outline of the steps:
as §1

For assay [6], the target named is GlcNAc(b1-3)Fuc. An outline of the steps:
as §1

The target of assay [7] is GlcNAc(b1-3)Gal. An outline of the steps:
as §1

Assay [8] addresses GlcNAc(b1-3)Gal(b1-3)GalNAc. An outline of the steps: as §1
Assay [9] concerns the target GlcNAc(b1-3)Gal(b1-4)Glc. The method, boiled down:
as §1

For assay [10], the target named is GlcNAc(b1-3)Gal(b1-4)GlcNAc. An outline of the steps:
as §1

The target of assay [11] is GlcNAc(b1-3)Gal(b1-4)GlcNAc(b1-2)Man(a1-3)[GlcNAc(b1-3)Gal(b1-4)GlcNAc(b1-2)Man(a1-6)]Man(b1-4)GlcNAc(b1-4)GlcNAc. An outline of the steps: as §1
Assay [12] addresses GlcNAc(b1-3)Gal(b1-4)GlcNAc(b1-2)Man(a1-3)[GlcNAc(b1-3)Gal(b1-4)GlcNAc(b1-2)Man(a1-6)]Man(b1-4)GlcNAc(b1-4)[Fuc(a1-6)]GlcNAc. An outline of the steps:
as §1

Assay [13] deals with GlcNAc(b1-3)Gal(b1-4)GlcNAc(b1-2)[GlcNAc(b1-3)Gal(b1-4)GlcNAc(b1-6)]Man(a1-6)[GlcNAc(b1-3)Gal(b1-4)GlcNAc(b1-2)Man(a1-3)]Man(b1-4)GlcNAc(b1-4)GlcNAc. The method, boiled down:
as §1

The target of assay [14] is GlcNAc(b1-3)Gal(b1-4)GlcNAc(b1-3)Gal(b1-4)GlcNAc. An outline of the steps: as §1
Assay [15] has as its target GlcNAc(b1-3)Gal(b1-4)GlcNAc(b1-3)Gal(b1-4)GlcNAc(b1-2)Man(a1-3)[GlcNAc(b1-3)Gal(b1-4)GlcNAc(b1-3)Gal(b1-4)GlcNAc(b1-2)Man(a1-6)]Man(b1-4)GlcNAc(b1-4)GlcNAc. The method, boiled down: as §1
Assay [16] concerns the target GlcNAc(b1-3)Gal(b1-4)GlcNAc(b1-3)Gal(b1-4)GlcNAc(b1-2)Man(a1-3)[GlcNAc(b1-3)Gal(b1-4)GlcNAc(b1-3)Gal(b1-4)GlcNAc(b1-2)Man(a1-6)]Man(b1-4)GlcNAc(b1-4)[Fuc(a1-6)]GlcNAc. The method, boiled down:
as §1

The target in assay [17] is GlcNAc(b1-3)Gal(b1-4)GlcNAc(b1-3)Gal(b1-4)GlcNAc(b1-2)[GlcNAc(b1-3)Gal(b1-4)GlcNAc(b1-3)Gal(b1-4)GlcNAc(b1-6)]Man(a1-6)[GlcNAc(b1-3)Gal(b1-4)GlcNAc(b1-3)Gal(b1-4)GlcNAc(b1-2)Man(a1-3)]Man(b1-4)GlcNAc(b1-4)[Fuc(a1-6)]GlcNAc. The method, boiled down:
as §1

Assay [18] has as its target GlcNAc(b1-3)Gal(b1-4)GlcNAc(b1-3)Gal(b1-4)GlcNAc(b1-3)Gal(b1-4)GlcNAc(b1-2)Man(a1-3)[GlcNAc(b1-3)Gal(b1-4)GlcNAc(b1-3)Gal(b1-4)GlcNAc(b1-3)Gal(b1-4)GlcNAc(b1-2)Man(a1-6)]Man(b1-4)GlcNAc(b1-4)GlcNAc. An outline of the steps:
as §1

Assay [19] deals with GlcNAc(b1-3)Gal(b1-4)GlcNAc(b1-3)Gal(b1-4)GlcNAc(b1-3)Gal(b1-4)GlcNAc(b1-2)Man(a1-3)[GlcNAc(b1-3)Gal(b1-4)GlcNAc(b1-3)Gal(b1-4)GlcNAc(b1-3)Gal(b1-4)GlcNAc(b1-2)Man(a1-6)]Man(b1-4)GlcNAc(b1-4)[Fuc(a1-6)]GlcNAc. An outline of the steps:
as §1

Assay [20] has as its target GlcNAc(b1-3)Gal(b1-4)GlcNAc(b1-3)Gal(b1-4)GlcNAc(b1-3)Gal(b1-4)GlcNAc(b1-2)[GlcNAc(b1-3)Gal(b1-4)GlcNAc(b1-3)Gal(b1-4)GlcNAc(b1-3)Gal(b1-4)GlcNAc(b1-6)]Man(a1-6)[GlcNAc(b1-3)Gal(b1-4)GlcNAc(b1-3)Gal(b1-4)GlcNAc(b1-3)Gal(b1-4)GlcNAc(b1-2)Man(a1-3)]Man(b1-4)GlcNAc(b1-4)[Fuc(a1-6)]GlcNAc. The method, boiled down:
as §1

For assay [21], the target named is GlcNAc(b1-3)Gal(b1-4)GlcNAc(b1-3)Gal(b1-4)GlcNAc(b1-3)Gal(b1-4)GlcNAc(b1-3)Gal(b1-4)GlcNAc(b1-2)Man(a1-3)[GlcNAc(b1-3)Gal(b1-4)GlcNAc(b1-3)Gal(b1-4)GlcNAc(b1-3)Gal(b1-4)GlcNAc(b1-3)Gal(b1-4)GlcNAc(b1-2)Man(a1-6)]Man(b1-4)GlcNAc(b1-4)GlcNAc. The method, boiled down: as §1
Assay [22] concerns the target GlcNAc(b1-3)Gal(b1-4)GlcNAc(b1-3)Gal(b1-4)GlcNAc(b1-3)Gal(b1-4)GlcNAc(b1-3)Gal(b1-4)GlcNAc(b1-2)Man(a1-3)[GlcNAc(b1-3)Gal(b1-4)GlcNAc(b1-3)Gal(b1-4)GlcNAc(b1-3)Gal(b1-4)GlcNAc(b1-3)Gal(b1-4)GlcNAc(b1-2)Man(a1-6)]Man(b1-4)GlcNAc(b1-4)[Fuc(a1-6)]GlcNAc. An outline of the steps:
as §1

For assay [23], the target named is GlcNAc(b1-3)Gal(b1-4)GlcNAc(b1-3)Gal(b1-4)GlcNAc(b1-3)Gal(b1-4)GlcNAc(b1-3)Gal(b1-4)GlcNAc(b1-2)[GlcNAc(b1-3)Gal(b1-4)GlcNAc(b1-3)Gal(b1-4)GlcNAc(b1-3)Gal(b1-4)GlcNAc(b1-3)Gal(b1-4)GlcNAc(b1-6)]Man(a1-6)[GlcNAc(b1-3)Gal(b1-4)GlcNAc(b1-3)Gal(b1-4)GlcNAc(b1-3)Gal(b1-4)GlcNAc(b1-3)Gal(b1-4)GlcNAc(b1-2)Man(a1-3)]Man(b1-4)GlcNAc(b1-4)[Fuc(a1-6)]GlcNAc. An outline of the steps: as §1

B1: PX14375F-bfa-539-21-539 (Bacteroides fragilis) (protein)
chain: EDFLQKDPPSSPSQSVFWQKKSDFESALAGTYSVMYSGVFSQIMPCLDGLTDNAIVQHSEGTYGWAKTIAQGDLTPNQGGFVTDIYGNCYKGIARVHILMEQLDQYTGSDISADEKKFMLAQCKALRGYFYSWLYQCYKEVPVVTQSLDLNTMYQPKATRAEVLNRVMTDYDEAISELPDKLYSDSQTSGRFTVSAVKALKARILLFDAYDSNGKAISSKMEEVLTLLQSIKGYSLAARVRDNFISEKQLASPEIMFSVRFLRPNLTHSMDLYYGAWAVLDPTRNMVDAFECTDGKPWGESPLTVRPDESILYGNDDALKKAERAKMFMNRDRRLYESVNHSMMANFVDDGFKDEEVQVNESNNKGPTGFSALKYVQPTDVTPGYSTVSDADIVVLRYAHVLLMIAEAENEAHGATTTALNAINEVRTRSGQPAIEAGISQDDLRERIRNEWRIETCFEGLRYFQLKRWKLMDKRVNGVEDPAYPGYIKVYKPAFEFFPIPQSEIDKAGGVLKQDPAYE
As for B1, the “glycan array binding signal (z-score)” value in [1] was -0.063; in assay [2], -0.643; in [3], 0.13; in assay [4] it was -0.427; in [5], 0.044; in assay [6], -0.513. For the same molecule, the “glycan array binding signal (z-score)” value was -1.02 in assay [7]; -0.429 in [8]; 0.207 in assay [9]; -0.34 in assay [10]; -0.631 in [11]; -0.528 in [12]. The “glycan array binding signal (z-score)” value in assay [13] was 1.57; in assay [14], -0.132; in assay [15], 0.005; in assay [16], 1.33; in assay [17], 0.838; in assay [18], -0.226. In addition, the “glycan array binding signal (z-score)” value was 0.054 in assay [19]; 0.248 in assay [20]; -0.284 in assay [21]; 0.673 in [22]; -0.072 in assay [23].
